The values that follow come from PubChem BioAssay AID485344 (National Center for Advancing Translational Sciences (NCATS), 2010).

The whole screen tested about 340,000 compounds, of which about 6,900 (2%) were called active. No stated cut-off is given here; in the data, active means inhibition above about 30%; inactive means below that, where a call was filed. The entries are a selection whose mix differs from that of the whole data set. Where no call is shown, the source filed none.

The target in this assay is D(2) dopamine receptor (Homo sapiens) (UniProt P14416). In words: HTS Assay for Allosteric Antagonists of the Human D2 Dopamine Receptor: Primary Screen for Antagonists. Further: 0% is about no effect. Conditions: HEK293 TREx D2 cells, calcium flux, dopamine EC80; at 10 µM; stronger effect = higher value. In a few lines: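 Dopamine at EC80 is the agonist stimulus; test compounds precede it by 180 s. Calcium flux read kinetically in a force-coupled, inducible HEK293 T-REx D2 cell line.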
Chain of UniProt P14416 (P14416 whole entry, looked up): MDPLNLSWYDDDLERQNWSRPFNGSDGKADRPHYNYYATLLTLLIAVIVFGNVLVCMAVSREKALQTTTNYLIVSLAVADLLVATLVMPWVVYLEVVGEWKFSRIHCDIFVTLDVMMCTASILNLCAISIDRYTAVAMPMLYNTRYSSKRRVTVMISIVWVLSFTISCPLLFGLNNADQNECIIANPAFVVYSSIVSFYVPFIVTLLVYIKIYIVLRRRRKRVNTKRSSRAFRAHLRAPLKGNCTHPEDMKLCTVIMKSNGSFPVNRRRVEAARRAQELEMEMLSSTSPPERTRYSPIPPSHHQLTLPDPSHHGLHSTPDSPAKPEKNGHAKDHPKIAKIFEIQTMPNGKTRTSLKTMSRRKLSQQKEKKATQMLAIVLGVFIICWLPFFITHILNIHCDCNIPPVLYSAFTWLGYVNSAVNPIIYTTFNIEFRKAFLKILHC
On to `CSc1nc2c(c(=O)[nH]1)C(c1cccc(F)c1F)CC(=O)N2` (stereo not given), for which the inhibition was 1.3%. As to `CC(C)(C)C(=O)Nc1ccc2nc(SCC(=O)N3CCOCC3)sc2c1`, the inhibition amounted to 8.05%.

Consider `C=CCN(c1ccc(C(=O)Nc2cccc([N+](=O)[O-])c2)cc1)S(C)(=O)=O`, for which the inhibition is active: 37.2%.

In the case of `CCCCN(CCCC)CCNC(=O)Cn1nc(C)n2c(cc3sccc32)c1=O`, the inhibition is -11.5%. The value for `COc1cccc(CNC(=O)c2ccc3c(c2)c(C)c(C)n3Cc2ccccc2)c1OC` was 9.51%; that for `CC(C)c1ccc(NC(=O)CS(=O)(=O)c2cccc3nsnc23)cc1` was 9.13%; that for `COc1ccc(NS(=O)(=O)c2cc(Br)cc3c2N(C(=O)C2CC2)CC3)cc1OC` was -3.49%. The value for `COc1ccc(CNC(=O)CN2C(=O)COc3ccc(S(=O)(=O)Nc4ccccc4)cc32)cc1` was -0.0687%; that for `CCOC(=O)c1cc2c(=O)n3ccccc3nc2n(C(C)C)c1=NC(=O)c1cc2ccccc2o1` was -2.03%. The value for `O=C(Nc1ccc(F)c(F)c1)c1cc(S(=O)(=O)NC2CCCCCC2)ccc1F` was 9.65%. As for `CCc1ccc(C(=O)c2cn(CC(=O)NC3CCCCC3)c3nc(C)ccc3c2=O)cc1`, the inhibition is -4.13%.

Take `O=C(c1ccccc1)n1nc(-c2ccccc2)nc1NCc1ccc(F)cc1`: the inhibition was -0.289%. The value for `COc1ccc(-n2nc(C(=O)N3CCCC(C)C3)c3c4ccccc4n(C)c3c2=O)cc1` (stereo not given) was -9.16%; that for `CC(=O)N1CCC(C(=O)NCCOc2cccc(C)c2)CC1` was active: 34.6%. The value for `Cn1c2ccccc2c2c(C(=O)N3CCN(c4ccccn4)CC3)cn(C3CCCC3)c(=O)c21` was active: 31.1%; that for `COc1ccc(-c2cc(C(F)(F)F)nc(S(C)(=O)=O)n2)cc1` was -6.16%. Regarding `CCOC(=O)c1sc2ccccc2c1S(=O)(=O)Nc1ccc(CC)cc1`, the inhibition was -17.4%. The value for `CCOc1ccc(N2CC(NC(=O)/C=C\c3ccc4c(c3)OCO4)CC2=O)cc1` (stereo not given) was -2.02%; that for `COc1ccc(-n2ccnc(NCc3ccccc3OC)c2=O)cc1` was 4.08%.

Consider `CCCNC(=S)NC1CC2CCCC(C1)N2Cc1ccc(F)cc1` (stereo not given), for which the inhibition was active: 80.6%. The value for `O=C(NCCn1cc(SCc2ccccc2Cl)c2ccccc21)c1cccs1` was -2.71%. The value for `O=C(Nc1ccccc1Cl)C1CCN(c2nc3ccccc3nc2C(F)(F)F)CC1` was -2.6%.

`Cn1c(=O)c2c(-c3cccc(Br)c3)n(C(C)(C)CO)cc2n(C)c1=O`: the inhibition turned out to be 0.7%.

Consider `CCC(C(=O)NCc1ccco1)n1nc(C)c2c(C)n(-c3ccc(C)cc3)nc2c1=O` (stereo not given), for which the inhibition was 0.424%. The value for `Cc1cccc(C(=O)NCC(=O)OCc2cc(=O)n3nc(CC(C)C)sc3n2)c1` was -8.33%; that for `CN(C)c1ccc(CNC(=O)c2cccc(NC(=O)N3CCSc4ncccc43)c2)cc1` was -1.17%; that for `COc1cccc(C(=O)N2CCN(CCc3ccncc3)CC2)c1` was -9.26%. The value for `O=C1N(Cc2ccccc2)c2ccc(Cl)cc2C1(O)c1c[nH]c2ccccc12` (stereo not given) was -1.82%. In the case of `Cc1ccc(NS(=O)(=O)c2ccc3c(c2)n(C)c(=O)n3C)cc1C`, the inhibition was determined as 1.23%. The value for `Cc1cc2nc(-c3ccc(OCc4ccccc4Cl)cc3)cc(C(F)(F)F)n2n1` was 7.42%; that for `COc1ccccc1NC(=O)Cn1c(SCC(=O)N(C)c2ccccc2)nc2ccccc21` was -9.09%. The value for `Cc1ccc(S(=O)(=O)NC2(C(F)(F)F)NC(=O)N(CCc3ccccc3)C2=O)cc1` (stereo not given) was 0.736%; that for `COc1cccc2c1cc1c(=O)n(CC(=O)N3CCN(c4ccc(Cl)cc4)CC3)nc(C)n12` was 6.64%; that for `Fc1ccc(Nc2ncnc3onc(-c4cccc(Cl)c4)c23)c(F)c1` was 14.2%. The value for `CCc1ccccc1NC(c1nnc(-c2cccc(F)c2)o1)c1ccc(F)cc1Cl` (stereo not given) was 2.39%; that for `Cc1ccc2scc(N3CCc4ccccc4C3)c(=O)c2c1` was 13.6%. `COc1cc(OC)cc(-c2nc3nc(C)c(CCC(=O)Nc4ccc(C)c(C)c4)c(C)n3n2)c1`: the inhibition turned out to be 0.0014%. The value for `Cc1ccc(C)c(N2CCN(C(=O)Cn3ncc4c(=O)oc5ccccc5c43)CC2)c1` was -15.3%.

With `CCN1CCN(Cc2nc3cc(NC(=O)c4cc(OC)c(OC)c(OC)c4)ccc3n2CC)CC1`, the inhibition is -8.41%.

In the case of `Cc1ccc(CNC(=O)N2CCC(CN3CCC(C)CC3)CC2)cc1`, the inhibition was -10.1%.

For `COc1ccc(S(=O)(=O)n2nc(-c3ccco3)nc2NCc2ccc(N(C)C)cc2)cc1`, the inhibition is 7.67%.

As for `COc1ccc(S(=O)(=O)c2cn(CC(=O)Nc3cc(C)ccc3C)c3ccccc3c2=O)cc1`, the inhibition is -1.57%. The value for `CCC1CN(C(=O)NCc2ccc(C)cc2)c2cc(Cl)ccc2O1` (stereo not given) was 18.1%.

In the case of `O=[N+]([O-])c1cccc(-c2ccc(CN3CCCCC3)o2)c1`, the inhibition is active: 80.7%. The value for `CC(=O)c1ccc(NC(=O)Cn2cnc3nc4c(cc3c2=O)CC(C)CC4)cc1` (stereo not given) was -14.6%; that for `CCOc1cccc(C2c3[nH]c4ccccc4c3CCN2C(=O)c2ccccc2F)c1` (stereo not given) was 0.796%; that for `CC(C)(C)c1ccc(C(=O)NC(=S)NNC(=O)c2cccs2)cc1` was active: 56.4%. Turning to `CCOc1ccccc1C(=O)Nc1ccc(S(=O)(=O)Nc2onc(C)c2C)cc1`, the inhibition was 4.21%. The value for `CCOC(=O)c1c(SCC(=O)Nc2nc3ccccc3s2)nc(=O)[nH]c1C` was -8.58%; that for `CCCCC(=O)Oc1ccc2oc(-c3ccc(OC)cc3)cc(=O)c2c1` was 11%; that for `Cc1ccc(F)cc1NC(=O)CCc1c(C)nn(-c2ccc(N3CCCC3)nn2)c1C` was 5.76%.

On to `CCOc1cc(CNC(=O)c2ccc(Cn3c(=O)c4cccn4c4cccnc43)cc2)ccc1OC`, for which the inhibition turned out to be 0.0476%. Turning to `CCOC(=O)c1cnc2cc(C(F)(F)F)ccc2c1N1CCN(c2cccc(Cl)c2)CC1`, the inhibition was -4.44%. The value for `Cc1ccc(NC(=O)CSc2nc3ccc(NC(=O)c4cccs4)cc3s2)cc1` was -12%; that for `CN(Cc1ccc(F)cc1)S(=O)(=O)c1nnc(NC(=O)c2ccccc2Br)s1` was -7.57%. The value for `Cc1ccc(NC(=O)CNC(=O)Cn2c(C)cc3ccccc3c2=O)cc1F` was 1.06%.

Consider `Cc1ccc(-n2nc3c(=O)n(CCCC(=O)NCc4ccccc4C)nc(C)c3c2C)cc1`, for which the inhibition is -1.08%.

As for `COCCNC(=O)c1c(-c2ccccc2)c(-c2ccccc2)nn(C)c1=O`, the inhibition came to 16.3%. The value for `Cc1ccc([N+](=O)[O-])cc1S(=O)(=O)N1CCn2cccc2C1c1ccccc1F` (stereo not given) was 1.04%. For `CCOC(=O)c1c(C)c(-c2ccccc2)n(CC(=O)NCc2cccc(OC)c2)c1C`, the inhibition was -7.28%. As for `O=C(NCc1cccn1Cc1ccccc1)Nc1cccc(C(F)(F)F)c1`, the inhibition is -7.9%. The value for `Cn1c(=O)oc2cc(S(=O)(=O)N3CCC(C(=O)NCc4ccccc4)CC3)ccc21` was 12.1%; that for `CCOc1ccc(N2CC(NC(=O)c3ccc(S(=O)(=O)N4CCCC4)cc3)CC2=O)cc1` (stereo not given) was 4.45%. As to `CCN(CC)S(=O)(=O)c1ccc2c(c1)nc(CN(C)C(=O)Nc1ccc(Cl)cc1)n2C`, the inhibition is -24.4%. For `CCOC(=O)c1c(C)[nH]c(C)c1S(=O)(=O)NCC(=O)NCc1ccc(C)cc1`, the inhibition is 5.98%. With `COc1ccccc1CNC(=O)CCNS(=O)(=O)c1ccc2c(c1)CCCC(=O)N2`, the inhibition is 4%.

`O=C(NCc1cccn1Cc1ccccc1)Nc1ccc(Br)cc1F`: the inhibition is -0.952%. For `COc1cccc(N2CCN(c3ncnc4c3c(-c3ccccc3)cn4-c3ccc(C)cc3)CC2)c1`, the inhibition was -7.92%.

For `CCCc1cc(=O)[nH]c2nnc(SCC(=O)Nc3ccc(OC)cc3)n12`, the inhibition is 10%. Turning to `O=C(Nc1ccccc1C(=O)OCc1cc(=O)n2ccsc2n1)c1ccc(Cl)cc1`, the inhibition is -12.7%. Consider `Cc1ccc(S(=O)(=O)c2nnn3c2nc(NC(C)c2ccccc2)c2sccc23)cc1` (stereo not given), for which the inhibition was -6.91%. The value for `COc1cc(C2SC[C@H]3C(=O)N(c4ccccc4)C(=O)N23)cc(OC)c1OC` (stereo not given in full) was 12.5%. The value for `COc1ccc(CNC(=O)C2CCCN(C(=O)N3CCOc4ccccc43)C2)cc1` (stereo not given) was -23.9%; that for `CCCN(CCC)S(=O)(=O)c1ccc2c(c1)N(CC(=O)NCc1ccc(F)cc1Cl)C(=O)CS2` was -10.8%. `O=C(CCCn1c(=O)c2ccccc2n(CC(=O)Nc2cccc(C(F)(F)F)c2)c1=O)NCc1ccc2c(c1)OCO2`: the inhibition worked out at 8.75%. The value for `Cc1ccccc1-c1nc(CN2CCC(C(=O)NCCc3ccccc3)CC2)c(C)o1` was 14.3%. The value for `CC(C)(C)c1ccc(C(=O)N2CCC(c3nc(-c4ccc(S(=O)(=O)N5CCCC5)cc4)no3)CC2)cc1` was 5.19%; that for `O=[N+]([O-])c1cccnc1N1CCN(Cc2ccc3c(c2)OCO3)CC1` was active: 92.3%. As to `CCOc1ccc(-c2cc3c(=O)n(Cc4nc(-c5ccc(OC(C)C)cc5)oc4C)ccn3n2)cc1Cl`, the inhibition is -5.51%. The value for `CCCCN(CC)CCCNC(=O)Cn1ncc2c3ccccc3n(Cc3ccccc3F)c2c1=O` was 12.8%; that for `Cc1ccc(-c2n[nH]c3c2C(c2cccc(O)c2)N(c2ccc(C(=O)O)cc2)C3=O)cc1` (stereo not given) was 5.56%. The value for `CCOc1ccc(N(CC)S(=O)(=O)N2CCCC(C(=O)Nc3cc(Cl)ccc3C)C2)cc1` (stereo not given) was 5.64%.

As for `COc1ccccc1CNc1nc2ccc(Cl)cc2n2cnnc12`, the inhibition was -4.46%. The value for `O=C(c1noc2c1CCCCC2)N1CCN(c2cccc(C(F)(F)F)c2)CC1` was 16.3%. The value for `CC(=O)c1c(C)oc2c(Br)cc(NS(=O)(=O)c3ccc(Br)cc3)cc12` was -15.7%; that for `Cc1ccccc1OC(=O)CSc1nnc(-c2ccc3c(c2)OCO3)o1` was 15.2%. Regarding `Cc1ccc(Cl)cc1N1CCN(C(=O)C2CCN(S(=O)(=O)c3cccc4nonc34)CC2)CC1`, the inhibition was determined as 6.94%. The value for `CN1CCN(C(=O)Cn2c(-c3cccs3)cc3cc(Cl)ccc32)CC1` was -0.946%; that for `COC(=O)c1cc(NC(=O)c2nn(C)c3c2CSc2ccccc2-3)cc(C(=O)OC)c1` was 16.3%. The value for `Cc1cc2ccccc2n1CCNC(=O)c1cc(C(F)(F)F)cc(C(F)(F)F)c1` was -18.6%; that for `COCCn1c(SCC(=O)c2ccc(C)cc2C)nc2cc(C(=O)NC3CCCC3)ccc2c1=O` was 17.3%.

Turning to `Cn1nnc2c(N3CCN(c4ccccc4)CC3)ncnc21`, the inhibition is -7.05%. The value for `CC(=O)Nc1ccc(NC(=O)CN2CCN(c3ccccn3)CC2)cc1` was active: 84.2%; that for `COc1cccc(NC(=O)C2CCC(CNS(=O)(=O)c3ccc4c(c3)CC(C)N4C(C)=O)CC2)c1` (stereo not given) was 25.4%. On to `CCOC(=O)c1cc(S(=O)(=O)Nc2ccc(C)cc2Cl)[nH]n1`, for which the inhibition is -28%.

The term inhibition denotes the drop in the measured response relative to a control, in per cent.
